According to the supplement of paper PMC3334620:
In all, about 33,000 sequences were measured (“E-score (-0.5 to 0.5)”: median about -0.035, highest 2% from about 0.34 on). This is one part of the list.

Target: T1, Mot3 (UniProt P54785)
T1 sequence: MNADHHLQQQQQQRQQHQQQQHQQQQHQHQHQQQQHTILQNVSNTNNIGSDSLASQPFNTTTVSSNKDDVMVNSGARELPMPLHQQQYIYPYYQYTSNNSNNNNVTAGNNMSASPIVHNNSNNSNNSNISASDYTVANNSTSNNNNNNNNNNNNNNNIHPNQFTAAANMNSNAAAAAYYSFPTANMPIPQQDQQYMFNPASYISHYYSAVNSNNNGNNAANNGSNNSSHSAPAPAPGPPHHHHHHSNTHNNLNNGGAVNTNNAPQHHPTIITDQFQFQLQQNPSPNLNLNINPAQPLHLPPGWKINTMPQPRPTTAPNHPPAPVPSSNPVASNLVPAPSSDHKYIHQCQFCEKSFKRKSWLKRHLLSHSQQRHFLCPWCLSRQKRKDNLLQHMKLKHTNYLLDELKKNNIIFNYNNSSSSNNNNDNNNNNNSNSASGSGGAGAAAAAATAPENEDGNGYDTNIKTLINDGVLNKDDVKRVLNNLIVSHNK
Assay: PBM E-score (8-mer binding enrichment) (E-score (-0.5 to 0.5)); higher = stronger / more preferred TF binding; most listed sequences are background and not binding sites
Conditions: protein concentration: 200 nM; construct: GST-full length
Summary of the method: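 Masliner-normalised scans of fluorescent anti-GST signal were the basis for scoring. That signal came from GST-tagged yeast transcription factors applied at about 100-200 nM to double-stranded universal all-10-mer Agilent arrays on fresh or once-stripped slides. Each ungapped eight-base word, pooled with its reverse complement, received an E-score from the Universal PBM Analysis Suite.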

| Sequence | PBM E-score |
| --- | --- |
| GGTCTCAC | -0.0183 |
| ATGGTACG | 0.0336 |
| CCCACGGA | -0.329 |
| AGATTAAT | 0.0372 |
| AAGGGTGT | 0.0514 |
| GAATAATC | -0.074 |
| CTCGGACC | -0.314 |
| GTCTACAA | 0.0985 |
| AGACCCAG | -0.153 |
| ACCCGCCA | -0.115 |
| ACCCCAGA | -0.22 |
| AGCTGCCG | -0.18 |
| GTCTGAAA | -0.0119 |
| AACCGTAA | 0.0256 |
| CAGATTAA | 0.021 |
| CAGCCTGC | -0.106 |
| CTAAGCGC | -0.0175 |
| CCGTTCCG | -0.278 |
| CGATGTAC | 0.103 |
| ACAAGCAA | 0.174 |
| AAGGACGG | -0.217 |
| CTCAAAAA | -0.0872 |

| Sequence | PBM E-score |
| --- | --- |
| AAACTAGG | 0.0841 |
| GCCCGTAC | -0.169 |
| CCACAAAC | -0.0354 |
| AGCCCTCA | -0.195 |
| GTTGAACA | 0.106 |
| GGTCCCCA | -0.293 |
| CGTTCCAA | 0.0171 |
| TAAGAAAA | 0.0531 |
| ATTTCAGA | -0.0309 |
| CGCAACGA | 0.217 |
| AACTTCGG | -0.00811 |
| GTTTCATA | -0.0759 |
| CAGATGCG | -0.0256 |
| TTCGGCAA | 0.0952 |
| CTACGATC | 0.0144 |
| ACATTTAC | 0.334 |
| CGGCGTAG | -0.0549 |
| ACAATTGC | 0.0275 |
| ACCGGGTC | -0.0798 |
| ACTGGTAT | -0.162 |
| CTTTATAA | 0.216 |
| ACTCGACA | -0.0199 |

| Sequence | PBM E-score |
| --- | --- |
| CTCTGTCA | 0.00291 |
| CTAAAGGC | 0.35 |
| CGTTTTTA | 0.188 |
| GGGCATAC | -0.186 |
| ATTCAGAC | -0.0183 |
| CCTAGTGA | -0.0745 |
| GGTCTGCA | -0.245 |
| ATTTCGGG | -0.133 |
| AAAGGGAC | -0.104 |
| CGCTACGC | -0.174 |
| ACGCTCAT | 0.0274 |
| CCATTTAG | 0.0168 |
| ATCCTGGG | -0.241 |
| CCGATTAG | -0.156 |
| AACATAAC | 0.294 |
| ACGGAAGG | 0.0584 |
| CTCGGTTA | -0.0778 |
| TCTTGTAA | 0.33 |
| CACCTGGA | 0.159 |
| CTGTCCAA | -0.158 |
| GGTCTGAC | -0.242 |
| CTTACTTC | -0.071 |

| Sequence | PBM E-score |
| --- | --- |
| CGAAAGTA | 0.0648 |
| GACTCGGA | -0.41 |
| CCATTTCG | -0.173 |
| GGGCGCCA | -0.265 |
| CCACCCTA | -0.0726 |
| CCTACGAG | 0.177 |
| CCTAGAGA | -0.145 |
| GATGCTCC | -0.1 |
| GCAGCTGC | -0.127 |
| TCGGCGCA | 0.00234 |
| AAAAACCC | 0.053 |
| CTAGTGTA | 0.114 |
| TCAAGCCA | -0.13 |
| CTCCGGGC | -0.234 |
| CCCCGAGC | -0.218 |
| CTATCAAA | -0.0817 |
| GAAAGGTA | 0.228 |
| GCGTGCCC | 0.295 |
| AGATGCTG | -0.111 |
| ATAAAAAC | 0.195 |
| CACCAGGC | -0.0662 |
| GATAGACC | 0.0018 |

| Sequence | PBM E-score |
| --- | --- |
| CACCTAAG | 0.0913 |
| TAAGTAGA | 0.00282 |
| TATAAGGA | 0.164 |
| ATTGAGCC | 0.00432 |
| CAGTCTCC | -0.146 |
| CATAAAGG | 0.155 |
| CAGTTTGC | -0.111 |
| CCTCCTAA | -0.00753 |
| GATGTACC | 0.129 |
| GAAGCCCA | -0.295 |
| AACCGGGC | -0.367 |
| GACTACGA | -0.212 |
| ATGATGCC | -0.106 |
| ATTCACGC | 0.0838 |
| TATGGTCA | -0.162 |
| CCGGCAGG | 0.0676 |
| CCTTTGAG | 0.0684 |
| CTCATATC | -0.271 |
| AGCTGTAA | 0.143 |
| CCGGTGCA | -0.18 |
| CACCGATA | 0.0481 |
